Data published in ChEMBL document CHEMBL4888484, “Replenishing the malaria drug discovery pipeline: Screening and hit evaluation of the MMV Hit Generation Library 1 (HGL1) against asexual blood stage Plasmodium falciparum ,using a nano luciferase reporter read-out” (2022).
The whole screen tested about 150,000 compounds, of which about 540 (0.36%) showed an effect of 50% or more. Some of the results follow.

What follows are compounds tested on Plasmodium falciparum (assay: Primary screen in NF54 nanoGlo assay, in single point, at 2uM, 72h; a lower Z score goes with more inhibition). Conditions: timepoint 72 hour.
Type: functional, Erythrocyte

| SMILES | % Inhibition [%] | Z score |
| --- | --- | --- |
| COc1ccc(C2CN(C(=O)c3cccc(Cl)c3)CC2C(=O)N2CCOCC2)cc1 (stereo not drawn) | 0 | 0.01 |
| c1ccc2c(CN(CC3CCN(C4CCCC4)CC3)C[C@H]3CCCO3)c[nH]c2c1 | -13 | 1.78 |
| Cc1cc(C(=O)NCC2(N(C)C)CC2)ns1 | 1 | -0.12 |
| O=C(c1ccc(F)cc1)N1CCOc2ccc(CN3CCCCC3)cc2C1 | -10 | 1.05 |
| O=C(COc1ccc(F)cc1)N1C2CCC1CC(n1nccn1)C2 (stereo not drawn) | -8 | 1.24 |
| CN1CCN(C(=O)CCCc2ccccc2)C2(CCCC2)C1 | -15 | 2.34 |
| O=C1CC(C(=O)NCC2CCCOC2)(c2ccccc2)CN1 (stereo not drawn) | -14 | 1.38 |
| Cn1nc2nc(N3CCN(Cc4ccccc4)CC3)nc(-c3ccccc3Cl)c2c1N | -2 | 0.34 |
| O=C1OCC2(CCN(C(=O)c3cc(C(F)(F)F)ccc3Cl)CC2)O1 | -2 | 0.29 |
| O=C(c1ccoc1C1CC1)N1CCn2ccnc21 | -14 | 2.16 |
| CCc1noc2nc(C)nc(N3CCC[C@H](C(=O)Nc4ccccc4Cl)C3)c12 | -1 | 0.11 |
| O=C(NCCC1=CCCCC1)c1cnn(-c2ccncc2)c1C(F)F | -9 | 0.82 |
| CNC(=O)[C@H]1CCc2nc(N3CCN(C(C)=O)CC3)sc2C1 | 28 | -3.23 |
| Cc1cnc(C(C)CNC(=O)NC2CCCCC2n2cccn2)s1 (stereo not drawn) | -2 | 0.25 |
| CCCN(Cc1cc(NC(=O)c2cccc(OC)c2)ccc1N(C)C)C(=O)c1ccc(F)cc1 | -4 | 0.58 |
| CC1(C)C[C@@H](NC2CCN(c3ccc(-n4cccn4)cc3)CC2)CCO1 | 6 | -1.13 |
| CCN(CC)C(=O)c1ccc2c(c1)N(CC(=O)N1CCCCC1)C(=O)CO2 | 13 | -1.69 |
| COc1ccc(CNC(C)(C)C#N)cc1 | -9 | 1.68 |
| COc1cc(Cl)ccc1C(=O)N(C)C1C2CCOC2C1(C)C (stereo not drawn) | -14 | 1.15 |
| CC(C)c1nnsc1CN1CCCn2nc([C@@H](O)CN(C)C)cc2C1 | -4 | 0.7 |
| COc1ccc(-c2noc(NCC3CCN(Cc4ccccc4F)CC3)n2)cc1OC | -13 | 1.1 |

| SMILES | % Inhibition [%] | Z score |
| --- | --- | --- |
| CCN(CC)c1nc(N)n(CCO)c(=O)n1 | -13 | 1.18 |
| CC(=O)N1CCC(CNC[C@H](O)c2ccc(Cl)c(Cl)c2)CC1 | 1 | -0.21 |
| O=C(CCS(=O)(=O)Cc1csc(C2CCCCC2)n1)Nc1ccccc1 | -7 | 1.3 |
| Cc1n[nH]c(C)c1[C@H](C)NC(=O)Cn1cccn1 | -8 | 1.25 |
| Cc1cc(-c2cnn(CC(=O)Nc3nn(C)c4ccccc34)c2)nc(N)n1 | 1 | -0.15 |
| Cn1nc(C2CC2)n(C2CCN(Cc3ccccc3)CC2)c1=O | -6 | 0.87 |
| CN(Cc1ccc(F)c(F)c1)C(=O)Cc1csc(-c2ccoc2)n1 | -10 | 1.13 |
| CCOC(=O)CC1(N(C)C(=O)[C@H]2CCOC2)CCCCC1 | -1 | 0.1 |
| Cc1nc(CC(C)C)c(O)c2c1S(=O)(=O)CC2=O | 10 | -1.66 |
| O=C(CN1CCC[C@H]1CO)Nc1ccccc1 | -2 | 0.26 |
| Cc1ccc(N2CCN(Cc3ccn(C)c(=O)c3)CC2)cc1 | -11 | 1.21 |
| COC(=O)CC1(NCc2cc(C)cc(C)c2)CCS(=O)(=O)CC1 | -11 | 2.13 |
| CCOc1ncccc1NC(=O)CCCc1ccc2[nH]c(=O)[nH]c2c1 | -5 | 0.88 |
| C[C@]12C(=O)N(CCN3CCOCC3)CC(=O)N1CCc1c2[nH]c2ccccc12 | -8 | 1.45 |
| CCOc1ccc(CN2C[C@@H](CO)[C@H](NC(=O)c3cnccn3)C2)cc1 | -14 | 2.46 |
| Cc1cc(-c2cc(-c3ccc(C(F)(F)F)cc3)nc(CC(N)=O)n2)c(C)o1 | -7 | 0.66 |
| CCC[C@H](Nc1nccn2nnnc12)C1CCC1 | 16 | -1.89 |
| CCN(CC(=O)NC(C)C)S(=O)(=O)c1cccc(F)c1C(=O)OC | -2 | 0.51 |
| COc1ccc([C@@H](O)C(=O)N2CCC3(CCC(=O)N(C4CC4)C3)CC2)cc1 | -5 | 0.54 |
| Cc1ccc(-c2noc(C3CC3)n2)cc1-n1cc(C(=O)N2CCN(c3cccc(C)c3C)CC2)c(C)n1 | 3 | -0.36 |
| Cc1nn(CC(=O)N2CCC[C@H](c3cc(O)ncn3)C2)c(C)c1C | -1 | 0.25 |

| SMILES | % Inhibition [%] | Z score |
| --- | --- | --- |
| CCN=C(NCc1noc(C)n1)NC1CCCC(CC)C1 (stereo not drawn) | 3 | -0.32 |
| CN(Cc1cccc(F)c1F)[C@H](c1ccccn1)C1CC1 | -15 | 1.39 |
| Cc1nsc(NCc2ccncn2)n1 | -1 | 0.1 |
| COc1ccc(F)cc1S(=O)(=O)N1C[C@@H]2C[C@H](NC(=O)c3ccccc3)[C@H]1C2 | 29 | -3.24 |
| Cc1cc2c3c([nH]c2cc1S(=O)(=O)NCCc1ccc(Cl)cc1)CCCC3=O | -14 | 2.25 |
| COc1ccc2c(c1)C(c1ccc(F)cc1)=C(CN1CCCC1)CO2 | 4 | -0.49 |
| COc1cccc(O)c1S(=O)(=O)N1CCC[C@H](c2nnc[nH]2)C1 | 11 | -1.45 |
| Cc1cc(NC(=O)CN[C@@H](C)c2cccc(Cl)c2Cl)n(C)n1 | -8 | 1.04 |
| Cc1nc2c(N3CCC4(CC3)N=C(N)NC4=O)ncnc2o1 | -1 | 0.13 |
| Cc1ccc(C(=O)NCC(C)(C)N2CCOCC2)nc1C | -1 | 0.15 |
| CC(C)c1ccc2c(c1)[C@@H](NC1CCN(CC(N)=O)CC1)CCC2 | -5 | 0.78 |
| O=C(Cc1cn(-c2ccccc2)nc1-c1ccc(Cl)cc1)OCc1c(F)cccc1Cl | -12 | 1.89 |
| Cc1ccc2cccc(C(=O)N3CCC(N4CCC(Oc5nccs5)CC4)CC3)c2n1 | -14 | 1.76 |
| CC(C)c1ccc(NC(=O)CCCC(=O)N2CCN(c3ccccn3)CC2)cc1 | -6 | 0.92 |
| Cc1noc(C)c1CN(C)C(=O)NCc1nc2c(C)cccc2o1 | -8 | 1.14 |
| O=C(NCC1CCCO1)C1CCCc2ccccc21 (stereo not drawn) | -2 | 0.28 |
| NC(=O)c1c(NC(=O)CN2CCC[C@H]2c2cccs2)sc2c1CCCC2 | -5 | 0.99 |
| COc1ccc(CCNC(=O)c2cc(-c3ccc4ccccc4c3)on2)cc1OC | -9 | 0.76 |
| COc1ccc(F)c(CN2CCC[C@@]3(CCN(Cc4cccnc4)C3)C2)c1 | 4 | -0.59 |
| CCOc1ccc(NC(=O)Nc2nc3c(s2)CN(S(=O)(=O)c2ccc(OC)cc2)CC3)cc1 | -14 | 1.31 |
| O=C(c1ccc(=O)[nH]c1)N1CCC[C@H](Oc2cnccn2)C1 | -2 | 0.36 |

| SMILES | % Inhibition [%] | Z score |
| --- | --- | --- |
| CC(C)(C)c1cc(NCc2nnc3ccc(Cl)cn23)ncn1 | -17 | 2.29 |
| COc1cccc(C(=O)N2C(C(=O)NCC3CCCO3)COC23CCN(C(=O)c2ccccc2F)CC3)c1 (stereo not drawn) | -2 | 0.3 |
| O[C@H]1CCCN(c2ncccc2CNc2cnc3ccccc3n2)C1 | 3 | -0.25 |
| CN1CCC(CNC(=O)Nc2ccccc2N2CC3CCC2C3)CC1 (stereo not drawn) | -10 | 1.41 |
| O=C(O)c1cccc(NC(=O)c2nc(-n3cnnc3)ccc2Br)c1 | -8 | 1.06 |
| O=C(NCCN1CCOC1=O)c1cn(C/C=C/c2ccccc2)nn1 | -13 | 1.67 |
| Cc1cccc(-c2ccc(C(=O)N3CC(C(N)=O)CCC3C)c(=O)[nH]2)c1 (stereo not drawn) | -17 | 2.18 |
| Cc1cc(NC(=O)c2ccc(Cl)c(F)c2)nc(=O)[nH]1 | -4 | 0.38 |
| CC(C)[C@@H](C#N)N1CCN(CC(=O)NCc2ccccn2)CC1 | 1 | -0.18 |
| c1ccc2c3nc(nc2c1)CCCCCCCCCCCN3 | -4 | 0.57 |
| O=C(Nc1cccc(F)c1)c1nnc(CCCC(=O)N2CCCCC2)s1 | -11 | 1.61 |
| CC(=O)c1cc(CN(C)CCc2c(C)n[nH]c2C)n(C)c1 | -14 | 1.57 |
| C[C@@H](Cn1cccn1)C(=O)N1CCc2c(Cl)cccc2C1 | -14 | 1.46 |
| COc1cc(OC)cc(-n2ccc(=O)c(Cc3c(Cl)cccc3Cl)c2C)c1 | 0 | 0.07 |
| O=C(Nc1cc(Cl)cc(Cl)c1)N1CCN(Cc2nnc3n2CCCCC3)CC1 | -8 | 1.08 |
| COc1ccc2c(NC3CCC(C(=O)O)CC3)ncnc2c1F (stereo not drawn) | 12 | -1.54 |
| CCCc1nccn1Cc1ccc(-n2ccnc2)cc1 | -9 | 1.14 |
| CC(C)CNC(=O)c1nn(-c2ccccc2)c2ccccc2c1=O | -10 | 1.32 |
| COCC1CCN(C(=O)[C@@H]2CCCn3c(-c4ccccc4)cnc32)CC1 | -14 | 2.02 |
| COc1ccc(S(=O)(=O)Nc2ccc(N(C)C)c(CN(CC(C)C)C(=O)CC(C)(C)C)c2)cc1 | -2 | 0.3 |
| CC(C)n1cnc(C(=O)N2CC3(CCC3)C3COCC32)c1 (stereo not drawn) | -3 | 0.62 |
